# Assay results reported in the supplement of paper PMC11417369.
# The list shows a part of the results.
# System: PfSIP2 AP2 domain 1 (GST-tagged)
# Assay: gcPBM binding intensity (ln(normalized median fluorescence intensity)); higher = stronger DNA binding
# In short: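 An Agilent 4 × 180k array carrying primer-extended double-stranded 36-bp intergenic genomic probes and negative controls received GST-tagged P. falciparum DNA-binding domains expressed in E. coli, about 25 μg on average, for 1 h. The binding buffer contained 1× PBS, 1% milk, 0.2 mg/ml BSA, 0.5% salmon testes DNA and 0.03% Triton X-100. Binding intensity is the top Masliner-normalised natural-log median intensity across replicate spots of either probe orientation, read after Alexa488 anti-GST antibody staining and a 488 nm scan.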
row,Sequence,gcPBM binding intensity (ln)
1,TATAACATTGTATGAATGCACTTTTATCTATTTTAA [GTGCAC_site9903],7.76
2,ATATATATATATATATGTACATATGTATGTGTTTGT [XGTACX_site397],9.33
3,TATACTCATTTTTATACACACTTGTTTTATAAAACG [CACACA_site4561],7.09
4,AAATTTATTATGAACATACACACAAAAAAAAAAAGT [CACACA_site2053],7.59
5,CTATATGTATAAAGTTGTACAGTTTTTCAAAGTTAA [XGTACX_site6652],7.07
6,TATATATTTTATTATTGTACGAATTATTTATTTTAC [XGTACX_site8105],6.92
7,TACATCATCTATAAGGTGCATTTTAGTTCTATTAAA,10.8
8,TTTTTTCTAATATCTTTGCCTTTTTCTTTATTTATT [CACACA_negctrl_site1053],6.6
9,TATTGAAACCCACACGAACACACGTATTTCATAAAC [CACACA_site251],6.95
10,TATAAAAAGCATAACACACACATGTCAATATAAATA [CACACA_site6648],6.91
11,ATGGACATTTTATAAATCACAATGGATATTTTATAA [CACACA_negctrl_site1830],6.83
12,TTTTTTTTTTTTTTGTGTACATATAATGCACATTAT [XGTACX_site6505],8.07
13,TACTTTTATATAGAAAGTACATACAATTCATAGAAT [XGTACX_site2182],6.98
14,ATAATTATATATATATGTACATATTATATATATATA [XGTACX_site4526],8.55
15,CATAAATACATACATACACACATATTTATATTTATA [CACACA_site7071],7.15
16,ATATACATATATATATGTACTGAAAAGAAAAGAATT [XGTACX_site150],7.08
17,TGTTTTTAAATTTAAATCAAAAAATAAAATAAAATA [GTGCAC_negctrl_site355],7.02
18,AAGATAACAAGTAATCAATCTAATTATTAATTATAT [CACACA_negctrl_site1713],6.71
19,AAAAGAAAAATGTCATATGATATCATATATTTTATA [GTGCAC_negctrl_site185],6.9
20,AAAAATATGTGATAATGTACTTTTCATTTTTATTTT [XGTACX_site8544],6.76
21,AATATAATATAATGCACACATAAACAAAAAAAAAAT [CACACA_site1304],7.53
22,TTCATTTGAAAACTGTGTACTTAAAAATATACATAT [XGTACX_site176],7.04

row,Sequence,gcPBM binding intensity (ln)
1,ATATATTTAAATAAATGTACAAATCATAAATTCAAG [XGTACX_site1417],6.98
2,TACATATATATAAATACACACACACCCACCTTATAA [CACACA_site9346],7.16
3,TTTTTATTTTATAATATATTCCTTTTCCTTTCTTTC [CACACA_negctrl_site245],6.64
4,TTATTAGAAAAATGCACACCAAAAAAAAAAAAAAAA [CACACA_site2522],7.47
5,ATACATATACACATATGTACATATGAAAAGAAAAAT [XGTACX_site6445],7.35
6,TATATATATTGTGTATGTACATATATATAAATATTG [XGTACX_site433],7.68
7,GAAAAGAAAAATAAACGTACATAAATATTAACATTA [XGTACX_site8213],6.73
8,CAAATAAAAATAAGGAGTACAATTAAAAAAGGAAGG [XGTACX_site4366],7.95
9,AAAATAAAAAAGTGTACACATATTAAAATGTATTTA [CACACA_site4424],6.92
10,TAAAATTATATAAAGGAACACACATTTTATTTTATT [CACACA_site8423],6.82
11,AATATATTTTAATATACACACATATCTGCTCTTTAA [CACACA_site6130],6.76
12,TCATTGTTAAGCTGAAGTACTTATAATTACATCGAG [XGTACX_site6340],7.04
13,TATTAGCATGTTATTACACACAATATAAAATATATA [CACACA_site1401],7.02
14,TGTCAATCATATAAATGTACATTTTAAATGAGGTGT [XGTACX_site7391],7.36
15,AATTAAATTACTTATACACACATAAAATGTCTGTAT [CACACA_site997],6.98
16,AAATTATGAACATATTGTACATATATATATATATAT [XGTACX_site8269],9.36
17,CATGTATGTACCATGGTGCAACAATATTTTTAACAA [GTGCAC_site9597],10.6
18,ATTATATAAATTATATGTACGTATTTTTTTTTTTTT [XGTACX_site1908],7.19
19,TTTATTTCTATATTTACATGCAAAGGGTTAGTTATA [TGCATGCA_site983],7.11
20,GATCTTTTTTTTCTTACTTTACAATTTTTTTTTTAC [XGTACX_negctrl_site101],7.15
21,TTTTTTTTTTTCATGTGTACATATATTTTCACTTTA [XGTACX_site4475],7.1
22,AAGAAAAAGAATAGACGGACAACTAATATAAAATAT [XGTACX_site7905],6.98

row,Sequence,gcPBM binding intensity (ln)
1,GTTTTACACAGACATGCATGTGAAAATTTGATGGTA [TGCATGCA_site308],6.96
2,TATCATCATGTATGTACACACATACCTATATTATGT [CACACA_site6768],7.18
3,TGTATAAAACATGGGTGTACTGAACTCAATCATATA [XGTACX_site1215],6.97
4,AAAAGTAACAAAGCTACACACATTTAAATAAACATA [CACACA_site1421],6.94
5,AAAATAACAAAATAAAGTACTTTTAAAAGATATAAT [XGTACX_site7632],6.9
6,GATTTTCTAATTTCTACACACATATAAGAATATTCA [CACACA_site7340],7.08
7,TTTTTAATTCAAACAATAATATGTTATATTTCAAAT [TGCATGCA_negctrl_site27],6.63
8,TTTTTTTTTCCTTCTTGTACATATTATATATACATA [XGTACX_site5988],7.09
9,TGGAACGTAATAAAATGTACATACGTTTTTCATATG [XGTACX_site6229],6.85
10,TTTTTTTTTTTTTGTACATGCAAATATTATGAACAC [TGCATGCA_site571],7.34
11,AACACATACATATATGCACACATTTTATTCCATTAT [CACACA_site2834],8.05
12,GACAAATTAATCGATTGTACACAATTTGTTTCGTTG [XGTACX_site35],6.87
13,TTCACATATATATAACGTACATTATTATTATTCTGA [XGTACX_site6006],7.09
14,TCTTATTTAATTAAACAAAAGAAAAAGAAAGAAAAG [CACACA_negctrl_site1569],7.03
15,TACAAGTATAAATAAGCACACATGTGTATATGTACA [CACACA_site7911],7.03
16,TTAGAAGGGATTAAAGTGCAAAATAGGATTAGAGTA,7.71
17,TTTTTTTTTTTTTTAACACACATATAAATATTTTTC [CACACA_site6985],6.99
18,AAAGTTTTAAGAAAATGTACATAAGTATACATATAT [XGTACX_site1293],6.92
19,TTTTTCTATTCCATTCAACACACAAAAATGTATGCT [CACACA_site8268],7.06
20,TGCATTTTACTTGTTACACACATATAAAATTAACCA [CACACA_site7387],7.11
21,ATTCTTGTTATATAAGGTACAGAACAAAATATAAAA [XGTACX_site5510],7.21
22,TTTGGGATAAAACAAAGTACTAACAAAATATATAAT [XGTACX_site8240],7.07

row,Sequence,gcPBM binding intensity (ln)
1,AAATGGAGTTAATATTGTACATATATATATATATAT [XGTACX_site5452],9.57
2,TTTTATAAATATTTTTGTACACATTTAAATATTATT [XGTACX_site4973],7.02
3,TTTTCATATATTTATTGTACATATTACATATATAAT [XGTACX_site2425],7.18
4,ATTTATAAATCAAAGTGTACATATGTTTTATTTTTT [XGTACX_site804],7.11
5,AGAGAGAACGGTATAACATGCAATAAATTTCAGAAG [TGCATGCA_site423],6.74
6,TTTTTTTAATAAAAGTGTACCAAATTATATACACAT [XGTACX_site6811],7.13
7,TTTTATTATATGGAGGTGCATATATAATAATATAAT [GTGCAC_site9477],11
8,ATCGGTAATATTAACACACACATTTATTTATATTTA [CACACA_site6638],7.01
9,TTCTTTTTAAATATACTAATTATGTATAAAACAGAA [GTGCAC_negctrl_site131],7.01
10,ATGTATGTAATAAAAAGTACATATGTTCATAATAAA [XGTACX_site842],7.06
11,TATACAATATTTATAACACACATATTTATATAAACT [CACACA_site6932],7
12,AGAACATTTTCTCAGTGTACTTATATATTTGACATA [XGTACX_site6541],7.15
13,ACTAAACAATATGTATGTACATATTTTACATATAAT [XGTACX_site3318],7.19
14,ACTTCCTATATTTATGCATGCATTTTATTAAAAAAT [TGCATGCA_site747],7.99
15,ATATATCATGAACCTTGTACGTATATATATATATAT [XGTACX_site239],9.79
16,GATGGAATCTAATTTACATGCAGTGATATAATAAAT [TGCATGCA_site1031],7
17,TAATAATAACCGTTATGTACACAATTTTGTGAACAT [XGTACX_site8053],6.93
18,ATTTATTTATTTATATGTACATATATATATATATAT [XGTACX_site339],9.54
19,TACAGACAGAAACACACACACACGCATAAAAAAAAA [CACACA_site1514],7.33
20,GTTAAGTGTATATATACACACATATGTAATACATGA [CACACA_site3048],7.09
21,ATATGTAGAATAAAAAAAAAAAAAAAAAAAAAAAAT [CACACA_negctrl_site621],6.9
22,TAATTAAAATTATATATTAGAAAAAACATATAAAAC [CACACA_negctrl_site190],6.98
